Test results published in publication PMC9574512.
No constants are given. Whether binding was seen depends on the method and setting. Binding seen in cells or lysates may run through a third protein. Some results given as binding are weak or reduced against the parent protein; the word gives no strength. For part of these data: Where a sequence is shown, tags or fusion partners need not be part of it.

Sequences of proteins named here, by UniProt entry; tags and fusion partners are left off.
UniProt P61026: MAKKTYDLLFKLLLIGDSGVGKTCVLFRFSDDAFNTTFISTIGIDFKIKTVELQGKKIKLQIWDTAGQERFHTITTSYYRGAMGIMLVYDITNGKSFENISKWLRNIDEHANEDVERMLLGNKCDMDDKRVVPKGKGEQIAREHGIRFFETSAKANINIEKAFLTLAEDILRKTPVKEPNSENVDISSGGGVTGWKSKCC

T1: HA-Rab29 D63A (human) (UniProt O14966)
T1 sequence: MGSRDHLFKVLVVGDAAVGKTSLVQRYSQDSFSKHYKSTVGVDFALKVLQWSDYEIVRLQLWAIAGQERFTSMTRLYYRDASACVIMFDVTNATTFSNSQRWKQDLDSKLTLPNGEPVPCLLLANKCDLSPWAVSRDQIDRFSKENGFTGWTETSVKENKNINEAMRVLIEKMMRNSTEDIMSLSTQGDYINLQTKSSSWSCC

T2: HA-Rab29 (WT) (human) (UniProt O14966)
T2 sequence: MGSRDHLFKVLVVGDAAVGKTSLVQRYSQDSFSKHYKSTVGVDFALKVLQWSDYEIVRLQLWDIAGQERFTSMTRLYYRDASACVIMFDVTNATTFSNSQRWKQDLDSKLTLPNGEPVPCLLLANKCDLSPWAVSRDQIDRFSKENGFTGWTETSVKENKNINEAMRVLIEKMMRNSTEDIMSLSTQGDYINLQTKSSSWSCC


What was measured:
Experiment in all cases: co-IP; HA-tagged Rab overexpressed in HEK293A cells; lysate at 1.0 mg/ml in lysis buffer with 1% Triton X-100; HA-agarose, 4 °C, 2 h, three washes; GDI1 and GDI2 detected by immunoblotting
HA-Rab10 (WT) (human) = HA-Rab10 (WT) (human) (UniProt P61026)
HA-Rab29 D63A (human) = target: T1, HA-Rab29 D63A (human)
HA-Rab29 (WT) (human) = target: T2, HA-Rab29 (WT) (human)

Row | Binder | binding (HA-Rab10 (WT) (human)) | binding (HA-Rab29 D63A (human)) | binding (HA-Rab29 (WT) (human))
1 | GDI1 (protein, UniProt P31150 1-447) MDEEYDVIVLGTGLTECILSGIMSVNGKKVLHMDRNPYYGGESSSITPLEELYKRFQLLEGPPESMGRGRDWNVDLIPKFLMANGQLVKMLLYTEVTRYLDFKVVEGSFVYKGGKIYKVPSTETEALASNLMGMFEKRRFRKFLVFVANFDENDPKTFEGVDPQTTSMRDVYRKFDLGQDVIDFTGHALALYRTDDYLDQPCLETVNRIKLYSESLARYGKSPYLYPLYGLGELPQGFARLSAIYGGTYMLNKPVDDIIMENGKVVGVKSEGEVARCKQLICDPSYIPDRVRKAGQVIRIICILSHPIKNTNDANSCQIIIPQNQVNRKSDIYVCMISYAHNVAAQGKYIAIASTTVETTDPEKEVEPALELLEPIDQKFVAISDLYEPIDDGCESQVFCSCSYDATTHFETTCNDIKDIYKRMAGTAFDFENMKRKQNDVFGEAEQ | binds | no binding | no binding
2 | GDI2 (protein, UniProt P50395 1-445) MNEEYDVIVLGTGLTECILSGIMSVNGKKVLHMDRNPYYGGESASITPLEDLYKRFKIPGSPPESMGRGRDWNVDLIPKFLMANGQLVKMLLYTEVTRYLDFKVTEGSFVYKGGKIYKVPSTEAEALASSLMGLFEKRRFRKFLVYVANFDEKDPRTFEGIDPKKTTMRDVYKKFDLGQDVIDFTGHALALYRTDDYLDQPCYETINRIKLYSESLARYGKSPYLYPLYGLGELPQGFARLSAIYGGTYMLNKPIEEIIVQNGKVIGVKSEGEIARCKQLICDPSYVKDRVEKVGQVIRVICILSHPIKNTNDANSCQIIIPQNQVNRKSDIYVCMISFAHNVAAQGKYIAIVSTTVETKEPEKEIRPALELLEPIEQKFVSISDLLVPKDLGTESQIFISRTYDATTHFETTCDDIKNIYKRMTGSEFDFEEMKRKKNDIYGED | binds | no binding | no binding
